In all, about 390,000 compounds went through this assay and about 17,000 (4.4%) were called active. This list was built around the results that the source calls inconclusive (neither active nor inactive); the mix of calls is not that of the screen. Calls come from the whole dose curve; as a rule, active = well fitted inhibition curve with a large enough effect; inconclusive = small, poorly fitted or top-dose-only effect; inactive = no such curve, though single readings can be large or run the other way. Potencies beside an inconclusive call are fits to weak or partial responses and may not hold up.
target: Lysine-specific demethylase 4A (Homo sapiens) (UniProt O75164); assay: qHTS Assay for Inhibitors of JMJD2A-Tudor Domain; details: AlphaScreen JMJD2A-Tudor / H3K4me3 peptide binding; activity change, negative = inhibition: at 114 µM (top of the series); note: nearly all actives have a fitted effect of over 50% in size
Chain of UniProt O75164 (O75164 whole entry, looked up, the tested form may be a part): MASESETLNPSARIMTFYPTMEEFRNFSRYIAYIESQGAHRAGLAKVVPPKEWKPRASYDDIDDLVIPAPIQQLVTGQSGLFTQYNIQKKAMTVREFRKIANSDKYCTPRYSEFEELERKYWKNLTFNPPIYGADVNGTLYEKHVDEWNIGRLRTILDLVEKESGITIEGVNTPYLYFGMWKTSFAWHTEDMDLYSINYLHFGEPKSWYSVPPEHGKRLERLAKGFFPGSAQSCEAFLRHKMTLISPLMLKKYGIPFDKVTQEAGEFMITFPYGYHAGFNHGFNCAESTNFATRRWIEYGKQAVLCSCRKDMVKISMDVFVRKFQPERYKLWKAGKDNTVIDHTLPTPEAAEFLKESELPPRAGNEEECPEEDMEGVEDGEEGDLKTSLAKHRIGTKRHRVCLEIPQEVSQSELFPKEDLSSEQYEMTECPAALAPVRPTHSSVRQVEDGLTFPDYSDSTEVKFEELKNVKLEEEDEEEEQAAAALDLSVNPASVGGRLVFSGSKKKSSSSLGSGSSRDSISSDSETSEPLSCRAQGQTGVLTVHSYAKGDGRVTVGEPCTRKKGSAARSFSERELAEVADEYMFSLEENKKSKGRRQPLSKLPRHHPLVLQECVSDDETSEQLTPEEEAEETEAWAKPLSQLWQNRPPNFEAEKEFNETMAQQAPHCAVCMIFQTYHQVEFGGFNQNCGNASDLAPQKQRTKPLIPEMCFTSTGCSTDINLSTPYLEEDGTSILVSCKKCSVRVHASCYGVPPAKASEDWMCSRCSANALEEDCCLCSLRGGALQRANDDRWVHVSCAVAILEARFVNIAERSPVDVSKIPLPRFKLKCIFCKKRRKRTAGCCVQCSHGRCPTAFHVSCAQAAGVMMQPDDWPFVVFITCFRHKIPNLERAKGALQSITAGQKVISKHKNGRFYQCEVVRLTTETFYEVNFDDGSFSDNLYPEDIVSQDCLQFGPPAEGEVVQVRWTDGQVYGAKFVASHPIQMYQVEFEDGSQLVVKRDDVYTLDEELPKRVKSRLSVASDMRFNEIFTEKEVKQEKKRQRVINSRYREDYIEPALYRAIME
% is set by controls: 0 for no effect and ±100 for the full control effect; potency is the fitted concentration of half-maximal effect; tags give direction and shape of the fitted curve.

Potency, active:
Cc1cc([N+](=O)[O-])cc(/C=N\NC(=O)C2COc3ccccc3O2)c1O (stereo not drawn) 50.1 µM
Cn1nc(C(C)(C)C)c([N+](=O)[O-])c1C(=O)NCCO 50.1 µM
O=[N+]([O-])c1ccc(N=Nc2c(Cl)cc(O)cc2Cl)cc1 11.2 µM
COc1cc(CNC2CCCCC2OC)cc(OC)c1 (stereo not drawn) 5.62 µM
c1ccc2c(-c3ccc(OCCN4CCCCC4)cc3)c(-c3ccsc3)sc2c1 39.8 µM
O=C(CCCn1c(=S)[nH]c2ccsc2c1=O)NCc1ccco1 56.2 µM
COc1ccc(N2CCN(CC(O)COC(c3ccccc3)c3ccccc3)CC2)cc1 (stereo not drawn) 44.7 µM
O=C1S/C(=C\C=C\c2ccco2)C(=O)N1c1ccccc1 10 µM
O=C1C=C(c2c(O)ccc3ccccc23)c2ccccc2C1=O 39.8 µM
O=C1NC(=Nc2ccccc2Cl)S/C1=C\c1cccc([N+](=O)[O-])c1O 39.8 µM
O=C1C=C(Nc2cccc3cccnc23)c2ccccc2C1=O 56.2 µM
CCCN(CCC)c1nc2c(C)cccn2c(=O)c1/C=C1/SC(=S)N(Cc2ccco2)C1=O 35.5 µM

Potency, inconclusive:
COCOc1ccc(/C=C/C(=O)c2c(O)cc(OCOC)cc2OCOC)cc1 35.5 µM [inhibitor, partial curve]
CC(=O)Nc1ccc(Nc2nc(C)c([N+](=O)[O-])c(N(C)c3ccccc3)n2)cc1 50.1 µM [inhibitor, partial curve]
Oc1ccccc1Nc1nc(NCc2ccccc2)c2ccccc2n1 25.1 µM [inhibitor, single point]
COc1ccc(N(CC(=O)NC2CCCCC2)C(=O)CCC(=O)Nc2nc(C)cs2)cc1OC 1.12 µM [inhibitor, full curve, poor fit]
Cn1nc(-c2ccccc2F)c2cc(C(=O)Nc3ccc4c(c3)OCCO4)sc21 79.4 µM [inhibitor, partial curve]
Cc1ccc(S(=O)(=O)N/N=C\c2ccc3c(c2)OCO3)cc1C 20 µM [inhibitor, partial curve]
CSc1cccc(NC(=S)N2CCCN(Cc3cccc(Cl)c3)C2)c1 39.8 µM [inhibitor, partial curve]
O=C(N/N=C/c1ccccc1O)C(=O)Nc1ccccn1 56.2 µM [inhibitor, partial curve, poor fit]
CC(C)CC(NC(N)=O)C(=O)Nc1ccc2c(c1)OCO2 (stereo not drawn) 44.7 µM [inhibitor, partial curve]
COc1cc(N=c2ssnc2Cl)cc(OC)c1OC 4.47 µM [inhibitor, single point]
O=C(CN1C(=O)S/C(=C\c2cc(Cl)c(O)c(Cl)c2)C1=O)Nc1ccccc1 79.4 µM [inhibitor, partial curve]
Cc1sc2ncnc(N/N=C/c3ccccc3O)c2c1C 0.708 µM [inhibitor, full curve, poor fit]
COC(=O)c1sc(N2C(=O)C(O)=C(C(=O)c3ccc(C)o3)C2c2ccc(OC)c(OC)c2)nc1C (stereo not drawn) 63.1 µM [inhibitor, partial curve, poor fit]
Fc1cccc(Cn2cc(C(=S)N3CCCCC3)c3ccccc32)c1 50.1 µM [inhibitor, partial curve]
CCOc1ccc(Nc2c(S(=O)(=O)c3ccccc3)cnc3ccc(F)cc23)cc1 11.2 µM [inhibitor, partial curve, poor fit]
CC(C)N(Cc1cnn(C)c1)Cc1nc(COc2ccccc2)no1 11.2 µM [inhibitor, full curve]
COc1ccc(N2CCN(C(=O)c3ccc(COc4ccc([N+](=O)[O-])cc4)o3)CC2)cc1 22.4 µM [inhibitor, full curve]
CCn1c(O)c(N=NC(=O)CNc2cccc(C)c2)c2ccccc21 56.2 µM [inhibitor, single point]
CN(C)c1ccc(NC(=O)N2CCOCC2)cc1 79.4 µM [inhibitor, single point]
O=C1C(=O)N(O)C2CCCCC2N1O (stereo not drawn) 89.1 µM [inhibitor, single point]
Cc1cccc(N2CCN(S(=O)(=O)c3ccc4c(c3)NC(=O)CS4)CC2)c1C 22.4 µM [inhibitor, full curve]
COc1ccc(NC(=O)CSc2nc(-c3cccc(C)c3)[nH]c2-c2ccccc2)cc1OC 28.2 µM [inhibitor, partial curve]
CC(=O)N1CCc2c(sc3c2c(=O)n(CCc2ccccc2)c(=O)n3Cc2ccccc2C)C1 20 µM [inhibitor, full curve, poor fit]
COc1cc(OC)cc(-c2c(-c3cccs3)c3cc(-c4ccc(OC)c(OC)c4)ccc3n2C)c1 22.4 µM [inhibitor, partial curve]
C/C(=C\C(=O)c1ccc(F)cc1)Nc1ccc(N2CCOCC2)cc1 14.1 µM [inhibitor, full curve, poor fit]
Cc1cccc(C)c1NC(=O)CS(=O)(=O)c1nc(-c2ccc(Cl)cc2)cn1-c1ccccc1 25.1 µM [inhibitor, full curve, poor fit]
COc1ccc(-c2cn(-c3ccc(C)cc3)c(=O)n2CC(=O)Nc2ccc(OC)c(OC)c2)cc1 12.6 µM [inhibitor, partial curve]
O=C(CCN1CCCCC1)NNC(=S)NC(=O)c1ccc(Br)cc1 14.1 µM [inhibitor, partial curve, poor fit]
O=C(Cn1ncc2c3ccccc3n(Cc3cccc(Cl)c3)c2c1=O)Nc1ccc(F)cc1F 79.4 µM [inhibitor, partial curve]
CC(C)(C)c1ccc(Cn2nnc3c(=O)[nH]c(C4CCN(C(=O)Cc5cccs5)CC4)nc32)cc1 35.5 µM [inhibitor, full curve, poor fit]
O=c1oc2cc([N+](=O)[O-])ccc2nc1/C=C(\O)c1cccc(Br)c1 89.1 µM [inhibitor, single point]
CCOc1cc(CNc2ccc3cn[nH]c3c2)ccc1OC 56.2 µM [inhibitor, partial curve, poor fit]
COc1ccc(Nc2nnc(-c3ccc(C)cc3)c3ccccc23)cc1C(=O)N1CCCCC1 17.8 µM [inhibitor, full curve, poor fit]
COc1cc(CNC(=O)c2ccc3c(c2)c(C)c(C)n3Cc2cccc(C)c2)cc(OC)c1OC 5.01 µM [inhibitor, full curve]
COc1cc(C2c3cc4c(cc3OC(NCCc3ccccc3)C2C)OCO4)cc(OC)c1OC (stereo not drawn) 56.2 µM [inhibitor, partial curve]
Clc1ccc(Oc2nc(N3CCOCC3)nc(N3CCOCC3)n2)c(C2CCCCC2)c1 10 µM [inhibitor, full curve, poor fit]
Cn1c(-c2ccc3c(c2)OCO3)cnc1N 79.4 µM [inhibitor, partial curve]
O=C(Nc1nnc(SCC(=O)N2CCCCC2)s1)c1cccs1 79.4 µM [inhibitor, single point]
Cc1ccc(C(C(=O)NC2CCCCC2)N(Cc2ccco2)C(=O)Cc2c[nH]c3ccccc23)o1 (stereo not drawn) 22.4 µM [inhibitor, full curve]
CCCS(=O)(=O)c1c(S(=O)(=O)CCC)c2cc(C(C)(C)C)ccn2c1C(=O)c1ccccc1 12.6 µM [inhibitor, full curve, poor fit]

Activity change, negative = inhibition, inactive:
COC(=O)c1ccc(CN(c2ccc(C)cc2)S(=O)(=O)c2ccc3c(c2)OCCO3)o1 -30.8% [at 11.4 µM]
O=C(NCCSc1ccccc1)c1cccnc1 -10.4%
CCCn1c(N)c(N(CCOC)C(=O)/C=C/c2cccc(Cl)c2)c(=O)[nH]c1=O -8.97%
Cc1c(C)c2cc3c(c(C)c2oc1=O)OCN(CCc1ccc(F)cc1)C3 -10.8%
Cn1c(N)c(C(=O)COC(=O)[C@H](Cc2ccccc2)N2C(=O)c3ccccc3C2=O)c(=O)n(C)c1=O -26.2%
CCOC(=O)C1CCCN(C(=O)c2cc(S(=O)(=O)Nc3ccccc3OC)ccc2C)C1 (stereo not drawn) -17.9%
CCOCCCn1c(=S)[nH]c2cc(C(=O)NCCCN(CC)CC)ccc2c1=O -18.5%
COc1ccccc1N1CCN(S(=O)(=O)c2c(C)nc3sccn3c2=O)CC1 -8.42%
O=C(CN1C(=O)NC2(CCCC2)C1=O)OCCOc1ccc(Br)cc1 -8.97%
Cc1cc(C)c2c(c1)c(C)cc1nnc(SCc3ccccc3C#N)n12 -15.9%
C=C1CCN(c2ccc(C(=O)NCCC)cc2[N+](=O)[O-])CC1 -35.5%
CC(O)c1cccc(NC(=O)C2CCCCC2)c1 (stereo not drawn) -18.4%
CC(CC(=O)N(CCC1=CCCCC1)c1c(N)n(Cc2ccccc2)c(=O)[nH]c1=O)c1ccccc1 (stereo not drawn) -25.5%
CCOC(=O)c1nc(NCc2ccc(Cl)cc2)c2c(C)noc2n1 -10.5%
O=c1c(-c2ccccc2)c[nH]n1-c1cccc([N+](=O)[O-])c1 -29.6%
O=C(NCCc1ccc(Cl)cc1)c1ccc(CS(=O)(=O)c2ccc(Cl)cc2)o1 -15.9%
